B1: CPEB3 Ribozyme (parent)
chain: UAACAGGGGGCCACAGCAGAAGCGUUCACGUCGCAGCCCCUGUCAGAUUCUGGUGAAUCUGCGAAUUCUGCUGUAUAUCUC

Read counts are not given, so values of variants with three or more changes are uncertain.

Variants of B1 are the subject of this data set. As to the kind of experiment: self-cleavage, relative activity (ratio to wild type); higher = more cleavage; in vitro, sequencing. An outline of the steps:
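Libraries of CPEB3 self-cleaving ribozyme mutants came from rounds of error-prone PCR and carried barcodes, which DNA sequencing matched to variants. In vitro transcription used T7 RNA polymerase at 37°C for 5 hours, with a further 15 min in DNase I before EDTA stopped the reaction; the ribozymes cleaved during both steps. The RNA was reverse transcribed with template switching and sequenced on Illumina. Relative activity is the cleaved/total read fraction of a variant divided by that of the unmutated ribozyme, averaged over three batches with at least 5 reads.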
With UAACAGGGGGCCGAAGCAGAAGCGCUCACGUCGCAGCCCCUGUCAGAUUCUGGUGAAUCUGCGAAUUCUGCUGUAUAUCUC [A13G C14A U25C], the self-cleavage is 0.07.

As for UAACAGGGGGCCGCAGCAGAAGCGUUCACGUCGCAGCUCCUGCCAGAUUCUGGCGAAUCUGCGAAUUCUGCUGUAUAUCUC [A13G C38U U43C U54C], the self-cleavage worked out at 0.18.

As for UAACAGGGGGCCGCAGCAGAAGCGUUAACGUUGCAGUCCCUGUCAGAUUCUGGUGAACCUGCGAAUUCUGCUGUAUAUCUC [A13G C27A C32U C37U U58C], the self-cleavage is 0.04.

With UAACAGGGGGCCGCAGGAGAAGCGUUCACGUCGCAGCCCAUGACAGAUUCUGGUGAAUCUGCGUAUUCUGCUGUAUUUCUC [A13G C17G C40A U43A A64U A77U], the self-cleavage came out at 0.15.

As for UAACAGGGGGCCGCAGCAGAAGCGUUCAUGUCGCAGCCCCUGUCAGAUUCUGGUGAAUCUGCGAAUUCUGCCGUAUAUCUC [A13G C29U U72C], the self-cleavage was determined as 0.21.

For UAACAGGGGGCCGCAGCAGAAGUGUUAACGUCGCAGCCCCUGUCAGAUUCUGGUGAAUCUGCGAAUUCUGCUGUAUAUCUC [A13G C23U C27A], the self-cleavage was determined as 0.24.

In the case of UAACAGGGGGCCGCAGCAGAAGCGUUCACGUCGCAGCCCGUGCCAGAUUCUGGUGAAUCUGCGAAUUCUGCUGUAUAUCAC [A13G C40G U43C U80A], the self-cleavage is 0.11.

For the variant UAACAGGGGGCCGCAGCAGAAGCGUUCACGUCGCAGCUCCUGUCAGAUCCUGGUGAAUCUGCGAAUUCUGCUGUAUAUCUC [A13G C38U U49C], the self-cleavage was determined as 0.15.

As for UAACAGGGGGCCGUAGCAGGAGCGUUCACGUCGCAGCCCCUGCCAGAUUCUGGUGAAUCUGCGUAUUCAGCUGUAUAUCUC [A13G C14U A20G U43C A64U U69A], the self-cleavage was found to be 0.14.

Consider UAACAGGGGGCCGCAGCAGAAGCGUUCACGUCGCAGCUCUUGUCAGGCUCUCGUGAAUCAGCGAAUUCUGCUGUAUAUCUC [A13G C38U C40U A47G U48C G52C U60A], for which the self-cleavage is 0.13.

Take UAACAGGGGGCCGCAGCAGAAGGGUUCGCGUCGCAGCCCCCGUCAGAUUCUGGUGAACCUGCGAAUUCUGCUGCAUAUCUC [A13G C23G A28G U41C U58C U74C]: the self-cleavage stood at 0.1.

As for UAACAGGGGGCCGCAGAAGAAGCGUUCUCGCCGCAGCCCCUGUCAGAUUCUGGUGAAUCCGCGAAUUCUGCUGUAUAUCUC [A13G C17A A28U U31C U60C], the self-cleavage came to 0.05.

With UAACAGGGGGCCGCAGGAGAAGCGUUCACGUCGCAGCCCCCGUCAGAUUCUGGUGAAUCUACGAAUUCUGCUGUAUAUCUC [A13G C17G U41C G61A], the self-cleavage came to 0.21.

For UAACAGGGGGCCGCAGCAGAAGCGUUCACGUCGUAGCCCCUGUCAGAUUCGGGUGAAUCUGCGAAUUCUGCUGUAUAUCUC [A13G C34U U51G], the self-cleavage was 0.14.

UAACAGGGGGCCGCAGCAGAAGCGUUCACGUCGCAGCCCCUGUCAGAUUCUGGUGAGUCUGCGAAUUCCGCAGUAUAUCCC [A13G A57G U69C U72A U80C]: the self-cleavage is 0.25.

UAACAGGGGGCCGCAGCAGAAGCGUUCACGUCGCAGCCCCUGUCAGAUUCUGGUGAAUCUGCGAAUUCUGCUGUUUAUCCC [A13G A75U U80C]: the self-cleavage is 1.

As to UAACAGGGGGCCGCAGCAGAAGCGUUCACGUCGGAGCCCCUGUCAGAUUCUGGUGAAUCUGCGAACUCUGCUGUAUAUCUC [A13G C34G U66C], the self-cleavage amounted to 0.06.

Turning to UAACAGGGGGCCGCAGUAGAGGCGCUCACGUCACAGCCCCAGUCAGAUUCUGGUGAAUCUGCGAAUCCUGCUGUAUAUCUC [A13G C17U A21G U25C G33A U41A U67C], the self-cleavage turned out to be 0.03.

As for UAACAGGGGGCCGCAGCAGAAGCGUUCACGUCGUGGCCCCAGUCAGACUCUGGUGGAUCUGCGAAUCCUGCUGUAUAUCUC [A13G C34U A35G U41A U48C A56G U67C], the self-cleavage stood at 0.12.

For UAACAGGGGGCCGCAGCAGAAGCGUUCACGUCGCAGCCCAUGACAGAUUCGGGUGAAUCUGCGAAUUCUGCUGUAUAUCUC [A13G C40A U43A U51G], the self-cleavage came out at 0.19.

Turning to UAACAGGGGGCCGCAGGAGAAGCGUUCACGUCGCAGCCCCUGUCAGAUACUGGUGAAUCUGCGAAUUCUGCCGUAUAUCUC [A13G C17G U49A U72C], the self-cleavage came out at 0.07.

Turning to UAACAGGGGGCCGCAGCAGAAGGGUUCUCGUCGCAGCCCCUGUCAGAUUCUGGUGAAUCUGCAAAUUCGGCUGCAUAUCUC [A13G C23G A28U G63A U69G U74C], the self-cleavage came to 0.32.

On to UAACAGGGGGCCGCAGGAGAAGCGUUCACGUCGCAGCCCCUGUCGGGUUCUGGUGAAUCUGCGAAUUCUGCUGUAUAUCUC [A13G C17G A45G A47G], for which the self-cleavage amounted to 0.27.

In the case of UAACAGGGGGCCGCAGUAGAAGCGUUUACGUCGCAGCCCCUGUCAGAUUCUGGUGAAUCUGCGAAUUCUGCUGUAUAUCAC [A13G C17U C27U U80A], the self-cleavage is 0.21.

For the variant UAACAGGGGGCCGUAGCAGAAGCGUUCACGUCGCAGCCCCUGUCAGAUUCUGGUGAAACUGCGAAUUCUGCUGUAUAUCUC [A13G C14U U58A], the self-cleavage was determined as 0.32.

As to UAACAGGGGGCCGCAGCAGAAGCGUUCACGUCGUAGCCCCUGCCAGAUUCUGGUGAAUCGGCGAAUUCUGCUGAAUGUCUC [A13G C34U U43C U60G U74A A77G], the self-cleavage came to 0.09.

For the variant UAACAGGGGGCCGCAGCAGAAGCGUUCACGUCGCAGCCCCUGUCAGAUUCUGGUGAAUCUGCGAGUUCUGCUGUAAAUCUC [A13G A65G U76A], the self-cleavage worked out at 0.34.

For the variant UAACAGGGGGCCGCAGCAGAAGCGUUCACGUCGCAGCCCGUGUCAGAUUCUGGUGAACCUGCGAAUUCUGCUGUAUAUCUC [A13G C40G U58C], the self-cleavage is 0.07.

In the case of UAACAGGGGGCCGCAGCAGAAGCGUUUACGUCGCAGCCCUUGUCAGAUCCUGGCGAAUCUGCAAAUUCUGCCGUAUAUCUC [A13G C27U C40U U49C U54C G63A U72C], the self-cleavage came out at 0.05.

Consider UAACAGGGGGCCGCAGCAGAAGCGUUCACGUCGCAGACCCUUUCUGAUUCUGGUGAAUCUGCGAAUUCUGCAGUAUAUCUC [A13G C37A G42U A45U U72A], for which the self-cleavage was determined as 0.33.

As for UAACAGGGGGCCGCAGCAGAAGCGUUCACGUCGCAGCCCACGUCAGAUUCUGGUGGAUCUGCGAACUCCGCUGUAUAUCUC [A13G C40A U41C A56G U66C U69C], the self-cleavage worked out at 0.04.

As to UAACAGGGGGCCGCAGCAGAAGCGUUCACGUCGCAGCCACUGUCAGAUUCCGGUGAAUCUGCGAAUUCUGCUGUAUAUCUC [A13G C39A U51C], the self-cleavage was 0.16.

Regarding UAACAGGGGGCCGAAGCAGAAGCGUUCACGUCUCAGCCCCUGUCAGAUUCUGGUCAAUCUGCGAAUUCUGCUGUAUUUCUC [A13G C14A G33U G55C A77U], the self-cleavage was determined as 0.06.

UAACAGGGGGCCGCAGCAGAAGCGUUCACGUCGCAGCCCAUGUCGGAUUCUGGUGAAUCUGCGAAUUCUGCUGUAUAUCUC [A13G C40A A45G]: the self-cleavage turned out to be 0.06.

These data come from the RNAGym collection of RNA variant scans (doi:10.1093/nar/gkz1192).
